Out of some 310,000 compounds screened, about 14,000 (4.5%) showed an effect of 50% or more. Effects have a minus sign here. Some of the results follow.
The compounds below were run against human ether-à-go-go-related gene (hERG) potassium channel (human, UniProt Q12809) (assay: primary screen, population patch clamp on CHO cells stably expressing hERG).
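Note: peak tail current of the secondary pulse compared with the same well before compound.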

Chain of human ether-à-go-go-related gene (hERG) potassium channel (Q12809 whole entry, looked up): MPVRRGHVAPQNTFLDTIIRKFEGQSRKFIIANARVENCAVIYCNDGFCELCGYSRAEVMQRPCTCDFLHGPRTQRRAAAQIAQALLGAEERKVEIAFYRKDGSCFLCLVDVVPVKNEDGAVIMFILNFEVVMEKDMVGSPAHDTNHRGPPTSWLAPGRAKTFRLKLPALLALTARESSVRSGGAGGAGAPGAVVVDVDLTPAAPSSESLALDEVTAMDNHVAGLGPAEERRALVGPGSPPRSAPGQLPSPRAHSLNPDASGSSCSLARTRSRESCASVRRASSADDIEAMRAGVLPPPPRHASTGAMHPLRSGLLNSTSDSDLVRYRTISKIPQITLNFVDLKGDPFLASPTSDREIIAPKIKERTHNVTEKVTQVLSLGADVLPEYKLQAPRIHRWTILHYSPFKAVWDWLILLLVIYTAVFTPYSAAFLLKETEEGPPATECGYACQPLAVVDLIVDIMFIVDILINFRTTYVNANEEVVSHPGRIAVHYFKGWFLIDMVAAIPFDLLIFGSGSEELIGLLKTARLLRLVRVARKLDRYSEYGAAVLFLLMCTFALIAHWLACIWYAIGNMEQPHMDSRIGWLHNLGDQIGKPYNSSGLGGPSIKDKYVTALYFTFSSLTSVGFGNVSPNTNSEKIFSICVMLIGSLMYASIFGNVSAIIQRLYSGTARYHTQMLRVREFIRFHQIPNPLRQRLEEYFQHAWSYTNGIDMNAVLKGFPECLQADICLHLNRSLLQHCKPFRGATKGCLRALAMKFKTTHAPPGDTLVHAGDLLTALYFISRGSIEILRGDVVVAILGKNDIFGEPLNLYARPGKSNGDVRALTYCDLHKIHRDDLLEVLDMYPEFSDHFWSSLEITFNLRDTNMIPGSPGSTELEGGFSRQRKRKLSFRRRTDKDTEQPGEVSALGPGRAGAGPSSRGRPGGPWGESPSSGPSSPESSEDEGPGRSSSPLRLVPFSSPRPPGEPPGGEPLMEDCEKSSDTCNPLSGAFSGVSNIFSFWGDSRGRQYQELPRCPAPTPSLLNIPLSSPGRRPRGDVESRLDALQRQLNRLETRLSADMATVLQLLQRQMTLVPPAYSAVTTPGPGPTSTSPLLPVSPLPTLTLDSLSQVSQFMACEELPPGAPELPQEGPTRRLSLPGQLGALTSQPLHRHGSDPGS

SMILES	hERG current change (%, negative = inhibition) at 10uM [%]
CCOCCC(=O)Nc1nnc(CCc2ccccc2)s1	-7.42
O=C(c1ccccc1CCc1ccccc1)N1CCN(c2ccccn2)CC1	-37.7
COc1ccc(N2CCN(C(=O)CNC(=O)c3cccc(Br)c3)CC2)cc1	-0.254
COc1cccc(OC)c1-c1nnc(-c2cn(C)c3ccccc23)o1	10.7
O=C(O)C(=O)O.c1ccc(COc2ccc(OCCCCN3CCCC3)cc2)cc1	-64
C[C@H](O)CC(=O)O	6.58
CC(NC(=O)Nc1ccc(Cl)c(Cl)c1)C(c1ccccc1)N1CCOCC1 (stereo not drawn)	-24.5
Cc1cc(C)c(C(=O)CSc2nnc(-c3cccnc3)n2C)c(C)c1	-22.4
O=C(OCCCc1cc2ccccc2c(=O)o1)c1ccccc1C(F)(F)F	1.58
CCOc1cccc(CNCCSc2nnnn2C)c1.Cl	9.44
COCCNC(=O)C(c1ccc(F)cc1)N(Cc1ccco1)C(=O)CCC(=O)Nc1ccccn1 (stereo not drawn)	-0.852
CCOc1ccc(CCNC(=O)CN2C(=O)COc3ccc(S(=O)(=O)N4CCOCC4)cc32)cc1	-6.84
COC(=O)C1C(=O)C2=C(CC1C)NC(C)=C(C(=O)OCc1ccc(OC)cc1)C2c1ccc(C)o1 (stereo not drawn)	-5.1
COc1cccc(-c2nc(CS(=O)(=O)CC(=O)NCCc3ccccc3)c(C)o2)c1	0.232
Nc1ccc2c(c1)COc1ccccc1O2	-8.58
O=C1C(=O)c2ccccc2C(O)=C1c1ccccc1F	14.1
O=C(Nc1nccs1)c1ccc(-c2ccc(Cl)cc2Cl)o1	25.5
CCN1CCN(C(=O)Nc2ccc(Cc3ccc(NC(=O)N4CCN(CC)CC4)cc3)cc2)CC1	6.12
CCOc1cc(C(=O)NCCN2CCOCC2)cc(OCC)c1OCC	-7.99
CC(NC(=O)Cc1ccccc1)C(=O)O (stereo not drawn)	11.4
CC(=O)c1cnc(Nc2nc(C)c3ccccc3n2)nc1C	17.3
COc1cc(OC)nc(Oc2ccccc2C(=O)Oc2ccc(F)cc2Cl)n1	4.67
Cc1ccc(C(=O)Nc2cc(Cl)ccc2OC(=O)c2ccc(C)cc2)cc1	11.6

SMILES	hERG current change (%, negative = inhibition) at 10uM [%]
CCOC(=O)C1=C(Nc2ccccc2)OCC1=O	10.9
CCC(C(=O)OCC(=O)c1ccc2c(c1)NC(=O)CO2)c1ccccc1 (stereo not drawn)	-17.5
Cc1cc(C)c(C(=O)C(C)OC(=O)Cn2cnc3c2c(=O)n(C)c(=O)n3C)cc1C (stereo not drawn)	-17.6
CCN(CC)S(=O)(=O)c1ccc(C)c(NC(=O)COc2ccc(Br)cc2Cl)c1	-2.71
CC(C)Nc1nc2c(c(=O)n(C)c(=O)n2C)n1C	-13.9
Cc1cc(C)nc(N2Cc3ccccc3C2=N)n1	-56
CCOC(=O)c1c(C)[nH]c(=S)c(C#N)c1-c1ccc(Cl)cc1	20.7
Cn1ccnc1SCCC#N	-7.16
O=C1NC(=O)/C(=C\c2ccc(OCc3cccc(C(=O)O)c3)c(Cl)c2)N1	20.1
COc1cc(OC)cc(C(=O)N[C@H](C(=O)NCc2ccco2)C(C)C)c1	4.29
O=C(O)C1C2CCC(C2)C1C(=O)NCCCn1ccnc1 (stereo not drawn)	-3.05
C=C(C)c1cccc(C(C)(C)NC(=O)NCc2ccc(OC)c(OC)c2)c1	5.84
Cc1cc(NC(=O)c2cc(-c3cccs3)on2)nn1Cc1ccc(Cl)cc1	-6.49
Cc1nc2sc(C(c3ccco3)N3CCC(Cc4ccccc4)CC3)c(O)n2n1 (stereo not drawn)	-37.7
Cc1noc(NS(=O)(=O)c2ccc(NC(=O)c3cnc4scc(C)n4c3=O)cc2)c1C	7
COc1cc(CCC(=O)Nc2cccc(S(=O)(=O)N(C)C)c2)cc(OC)c1OC	-12.4
Cc1ccc(S(=O)(=O)N(C)CC(=O)Nc2ncccc2C)cc1	5.96
CCC(C)(C)n1nnnc1C(c1ccc2ncccc2c1)N1CCN2CCCC2C1 (stereo not drawn)	-10.8
Cc1ccc(C(=O)C(C)N2C(=O)NC(C)(c3ccccc3)C2=O)cc1 (stereo not drawn)	-4.13
O=C(O)c1cc2nc(-c3ccc(F)cc3)cc(C(F)(F)F)n2n1	4
CC(C)c1nnc(NC(=O)C2CC(=O)N(CCc3ccc(F)cc3)C2)s1 (stereo not drawn)	-1.32
CC(=O)N1CCC(C(=O)Nc2ccc(S(=O)(=O)N3CCCCC3)cc2)CC1	-22.4
